Results published in PubChem BioAssay AID1963576 (National Center for Advancing Translational Sciences (NCATS), 2024).
The whole screen tested about 46,000 compounds, of which about 60 (0.1%) were called active. Not shown: some 3% with an inconclusive outcome. Calls follow the shape of the dose curve; as a rule, active = well fitted inhibition curve with a large enough effect; inconclusive = small, poorly fitted or top-dose-only effect; inactive = no such curve, though single readings can be large or run the other way. This is one part of the list.

Assay: Primary qHTS assay for Inhibitors of ovarian cancer metastasis using an organotypic tumor microenvironment (TME) model. Also: nearly all actives have a fitted effect of over 65% in size.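 As to activity change, negative = inhibition: plate controls were DMSO wells for no effect and tomatine positive control wells for full effect.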
Conditions: SKOV3ip1-GFP adhesion/invasion on 3D omental model, fluorescence; series mostly up to 45.8 µM; activity change, negative = inhibition: at the top concentration
Summary of the method: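 Primary human omental fibroblast/mesothelial 3D culture pre-formed 48 h. SKOV3ip1-GFP cells added with compounds (0.36-46 umol/L), incubated 2 h RT/16 h 37 C, fixed; GFP cells quantified at 488/509 nm.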

Row | SMILES | activity change, negative = inhibition | outcome
1 | Cc1ccc(C(=O)c2oc3ccccc3c2NC(=O)c2cc(-c3ccc(Cl)cc3)on2)cc1 | inactive: -1.07% | 
2 | CCN(CC)S(=O)(=O)c1ccc2c(c1)nc(CN(C)C(=O)Nc1ccc(F)cc1)n2C | inactive: 18% | 
3 | Cc1ccc(OCCCCn2cnc3ccccc32)cc1 |  | inactive
4 | COc1ccc(CNC(=O)C(CCSC)NS(=O)(=O)c2ccc3c(c2)oc(=O)n3C)cc1 (stereo unspecified) |  | inactive
5 | Fc1ccc(Nc2nc(SCc3cccc(Cl)c3)nc3ccccc23)cc1 | inactive: -2.89% | 
6 | COc1ccc(NC(=O)c2nnn(CC(=O)Nc3c(C)cc(C)cc3C)c2N)cc1OC | inactive: 5.21% | 
7 | Cc1ccc(C)c(CN2C(=O)c3ccccc3S(=O)(=O)c3ccc(C(=O)Nc4cc(F)ccc4F)cc32)c1 | inactive: -12.5% | 
8 | COc1ccc(CNC(=O)CSc2n[nH]c(-c3ccc(F)cc3)n2)cc1 | inactive: 9.47% | 
9 | CS(=O)(=O)c1ccccc1-c1nnc(NC(=O)c2ccc3c(c2)OCCO3)o1 |  | inactive
10 | O=C(Nc1nc2n(n1)C(c1ccccc1)C=C(c1ccccc1)N2)c1ccccc1 (stereo unspecified) | inactive: 5.03% | 
11 | COc1cc(Cl)c(C)cc1NC(=O)CCc1c(C)nc2c3cccnc3nn2c1C | inactive: -7.69% | 
12 | CCOc1ccc(-c2cc(NC(=O)c3cccc(Cl)c3)c(C(=O)OC)s2)cc1 | inactive: -2.32% | 
13 | CNC(=O)C(=O)NCC(c1ccc2c(c1)OCO2)N1CCOCC1 (stereo unspecified) | inactive: -8.73% | 
14 | Cc1cc(C)cc(NC(=O)CSc2nc3c([nH]c4ccccc43)c(=O)n2-c2ccc(F)cc2)c1 | inactive: 87.3% | 
15 | O=C(c1ccc(F)cc1F)N1CCC(c2nc(-c3ccc(S(=O)(=O)N4CCCC4)cc3)no2)CC1 | inactive: 36.1% | 
16 | COc1ccc(CNC(=O)C2=C(C)C(=O)OC23CCCCC3)cc1OC | inactive: -6.71% | 
17 | CCCOc1ccc(C(=O)Nc2nonc2-c2ccc(OCC)cc2)cc1 |  | inactive
18 | CC1=C(C(=O)Nc2ccccc2)C(c2ccc(C)cc2)n2nc(SCc3ccccc3C)nc2N1 (stereo unspecified) | inactive: 31.2% | 
19 | Cc1oc2cc3oc(=O)c(CC(=O)N4CCCCC4)c(C)c3cc2c1C | inactive: -13.3% | 
20 | CCCc1ccc(S(=O)(=O)N2CCC(c3nnnn3-c3ccc(OC)cc3)CC2)cc1 |  | inactive
21 | CCOC(=O)c1ccc(NC(=O)c2cn(-c3ccccc3)nc2-c2ccc(C)cc2)cc1 | inactive: 9.72% | 

Row | SMILES | activity change, negative = inhibition | outcome
22 | CCCOc1ccc(CNC(=O)c2oc3ccc4c(c3c2C)C(=O)CC(C)(CC)O4)cc1 (stereo unspecified) |  | inactive
23 | CCOc1cc(C#N)c(NC(=O)c2ccc(OC)c(S(=O)(=O)N3CCN(c4ccccc4)CC3)c2)cc1OCC |  | inactive
24 | CCc1nnc2c(N3CCN(c4cccc(C(F)(F)F)c4)CC3)nc3ccccc3n12 | inactive: 3.5% | 
25 | COc1ccc(CNC(=O)Cn2c(=O)c3cccn3c3ccccc32)cc1 | inactive: 1.02% | 
26 | CSc1nc(-c2ccccc2Cl)nc2c1Cc1c(CO)cnc(C)c1O2 | inactive: -3.28% | 
27 | O=C(Nc1c(C(=O)N2CCN(c3ccccc3F)CC2)oc2ccccc12)c1ccco1 | inactive: -3.96% | 
28 | CN1CCN(CCCNC(=O)c2cnn(-c3ccc(F)cc3)c2-n2cccc2)CC1 |  | inactive
29 | CNc1ccc(-c2nc(-c3ccccc3C)no2)cc1[N+](=O)[O-] | inactive: 0.523% | 
30 | COc1ccc(N(CC(=O)N2CCc3ccccc3C2)S(=O)(=O)c2ccc(C)cc2)cc1Cl |  | inactive
31 | O=C(Cn1c(=O)n(Cc2ccco2)c(=O)c2oc3ccccc3c21)Nc1ccc(F)c(Cl)c1 | inactive: -4.88% | 
32 | COc1cccc(CNc2ncnc3onc(C)c23)c1 | inactive: -1.7% | 
33 | COc1ccc(OC)c(CN2CCN(S(=O)(=O)c3ccccc3)CC2)c1 | inactive: 6.39% | 
34 | Cc1ccccc1NC(=O)c1cn(-c2ccccc2)nc1-c1ccccc1 | inactive: -14.4% | 
35 | O=S(=O)(NCC(c1ccco1)N1CCOCC1)c1ccc(Br)cc1 (stereo unspecified) |  | inactive
36 | CCc1cc(-c2n[nH]c(C)c2-c2ccc3c(c2)OCCO3)c(O)cc1O | inactive: 32.3% | 
37 | CCOc1cc(C2C(C(=O)OC)=C(C)NC3=C2C(=O)c2ccccc23)ccc1OC (stereo unspecified) | inactive: -0.419% | 
38 | Cc1ccc(S(=O)(=O)c2cnc(SCC(=O)Nc3ccc4c(c3)OCCO4)[nH]c2=O)cc1Cl | inactive: 8.01% | 
39 | CCOc1ccc(NC(=O)c2sc3nc4c(c(-c5ccccc5)c3c2N)C(=O)CC(C)(C)C4)cc1 | inactive: -4.69% | 
40 | CCCn1c2ccccc2c2cnn(CC(=O)NCCCN3CCCCC3)c(=O)c21 |  | inactive
41 | O=C(NCCc1ccccc1)c1ccc2nc(N3CCCCC3)sc2c1 |  | inactive
42 | CCOC(=O)c1c(NC(=O)CSc2cn(CCNC(=O)c3cccc(C(F)(F)F)c3)c3ccccc23)sc2c1CCC2 | inactive: 19.3% | 

Row | SMILES | activity change, negative = inhibition | outcome
43 | Cc1ccc2oc(C(=O)N(Cc3ccc(N(C)C)cc3)CC3CCCO3)c(C)c2c1 (stereo unspecified) | inactive: -5.21% | 
44 | O=C(Nc1ccc(Br)cc1)c1cc(-c2cccs2)nc2ccccc12 | inactive: -16% | 
45 | CC1CCC(N2CC(=O)N(C3CCCCC3)C(c3ccc(Cl)cc3)C2=O)CC1 (stereo unspecified) | inactive: 40.4% | 
46 | COc1cccc(C(=O)Nc2nc3ccc(S(=O)(=O)N4CCCC4)cc3s2)c1 | inactive: -35.5% | 
47 | CC(NC(=O)C1CCN(S(=O)(=O)c2ccc(F)cc2)CC1)c1ccccc1 (stereo unspecified) | inactive: -7.65% | 
48 | CN1CCC(=C2c3ccccc3CCc3sccc32)CC1 | inactive: 3.82% | 
49 | CCOc1ccccc1CNC(=O)CCc1c(C)nn(-c2ccc(N3CCCCC3)nn2)c1C |  | inactive
50 | O=C(Cn1ncc2c3ccccc3n(Cc3ccc(Cl)cc3)c2c1=O)NCCC1=CCCCC1 | inactive: 30.6% | 
51 | O=C1CSC2(C(=O)N(Cc3ccccc3F)c3ccccc32)N1c1cccc(C(F)(F)F)c1 (stereo unspecified) |  | inactive
52 | CN(C)CCNC(=O)C1CCN(c2ncnc3c2nc2n3CCCCC2)CC1 | inactive: 2.04% | 
53 | CC(C)c1ccc(NC(=O)CSC2=Nc3ccccc3C3=NC(CC(=O)NCc4cccs4)C(=O)N23)cc1 (stereo unspecified) |  | inactive
54 | COc1cc(NC(=O)CSc2ncc3c(n2)-c2ccc(Cl)cc2N(Cc2ccccc2)S3(=O)=O)cc(OC)c1 |  | inactive
55 | Cc1ccc(NS(=O)(=O)c2ccc(-c3cnc(C4CC4)o3)cc2)cc1N(C)C | inactive: 3.28% | 
56 | CC(C)Oc1ccc(C(=O)N2CCC(c3nc4ccccc4o3)CC2)cc1 | inactive: -14.4% | 
57 | COc1ccc(-c2cc(C(=O)Oc3ccc(C)cc3)c3ccccc3n2)cc1 | inactive: -2.82% | 
58 | Cc1nc(-c2cccc(F)c2)sc1CCNC(=O)c1c(F)cccc1Cl | inactive: -6.56% | 
59 | Cc1ccc(NC(=O)CSc2nnc(-c3nnn(-c4ccc(F)cc4)c3C)o2)cc1Br | inactive: 7.07% | 
60 | O=C(Cc1ccccc1)Nc1c(C(=O)c2ccccc2)oc2ccccc12 | inactive: -6.2% | 
61 | COc1ccc(CNC(=O)c2cc3cc4ccc(C)cc4nc3o2)cc1 |  | inactive
